# In the supplement of paper PMC8728848:
# Some of the results follow.
# B1: LTL (Lotus tetragonolobus), P19664 (protein)
# chain: VSFNYTEFKDDGSLILQGDAKIWTDGRLAMPTDPLVNNPKTTRSAGRALYATPVPIWDSATGNVASFVTSFNFLFVIRELKYTPTDGLVFFLAPVGTEIPSGSTGGFLGIFDGSNGFNQFVAVEFDSYHNIWDPKSLRSSHVGIDVNSIMSLKAVNWNRVSGSLEKATIIYDSQTNILSVVMTSQNGQITTIYGTIDLKTVLPEKVSVGFSATTGNPEREKHDIYSWSFTSTLKEPEEQA
# Experiments:
# Assay in all cases: glycan array binding signal (z-score within array); higher = stronger binding
# Settings in all cases: glycan notation: IUPAC condensed, linker removed
# [1] = biological target: Fuc(a1-2)[GalNAc(a1-3)]Gal(b1-4)GlcNAc(b1-3)[Fuc(a1-2)[GalNAc(a1-3)]Gal(b1-4)GlcNAc(b1-6)]GalNAc
# Method in brief: (§1)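 Glycan array data came from 3228 arrays in the Consortium for Functional Glycomics database, and only arrays with an available protein sequence were kept. Glycan names were put into IUPAC-condensed notation, and columns mapping to the same glycan were averaged. The binding signal is a within-array Z-score, averaged across arrays of one protein sequence run at different concentrations or buffers and across linkers. A negative Z-score can be read as non-binding.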
# [2] = biological target: Fuc(a1-2)[GalNAc(a1-3)]Gal(b1-4)GlcNAc(b1-6)GalNAc
# Method in brief: as §1
# [3] = biological target: Fuc(a1-2)[GalNAc(a1-3)]Gal(b1-4)[Fuc(a1-3)]GlcNAc
# Method in brief: as §1
# [4] = biological target: Fuc(a1-2)[GalNAc(a1-3)]Gal(b1-4)[Fuc(a1-3)]GlcNAc(b1-3)GalNAc
# Method in brief: as §1
# [5] = biological target: Fuc(a1-2)[GalNAc(a1-4)]Gal(b1-4)GlcNAc
# Method in brief: as §1
# [6] = biological target: Fuc(a1-2)[GalNAc(b1-3)]Gal
# Method in brief: as §1
# [7] = biological target: Fuc(a1-3)GlcNAc
# Method in brief: as §1
# [8] = biological target: Fuc(a1-3)[Gal(b1-4)]Glc6S
# Method in brief: as §1
# [9] = biological target: Fuc(a1-3)[Gal(b1-4)]GlcNAc
# Method in brief: as §1
# [10] = biological target: Fuc(a1-3)[Gal(b1-4)]GlcNAc(b1-2)Man
# Method in brief: as §1
# [11] = biological target: Fuc(a1-3)[Gal(b1-4)]GlcNAc(b1-2)Man(a1-3)[Fuc(a1-3)[Gal(b1-4)]GlcNAc(b1-2)Man(a1-6)]Man(b1-4)GlcNAc(b1-4)GlcNAc
# Method in brief: as §1
# [12] = biological target: Fuc(a1-3)[Gal(b1-4)]GlcNAc(b1-2)Man(a1-3)[Fuc(a1-3)[Gal(b1-4)]GlcNAc(b1-2)Man(a1-6)]Man(b1-4)GlcNAc(b1-4)[Fuc(a1-6)]GlcNAc
# Method in brief: as §1
# [13] = biological target: Fuc(a1-3)[Gal(b1-4)]GlcNAc(b1-3)Gal(b1-3)[Fuc(a1-4)]GlcNAc
# Method in brief: as §1
# [14] = biological target: Fuc(a1-3)[Gal(b1-4)]GlcNAc(b1-3)Gal(b1-4)[Fuc(a1-3)]GlcNAc
# Method in brief: as §1
# [15] = biological target: Fuc(a1-3)[Gal(b1-4)]GlcNAc(b1-3)Gal(b1-4)[Fuc(a1-3)]GlcNAc(b1-3)Gal(b1-4)[Fuc(a1-3)]GlcNAc
# Method in brief: as §1
# [16] = biological target: Fuc(a1-3)[Gal(b1-4)]GlcNAc(b1-3)GalNAc
# Method in brief: as §1
# [17] = biological target: Fuc(a1-3)[Gal(b1-4)]GlcNAc(b1-4)Gal(b1-4)[Fuc(a1-3)]GlcNAc
# Method in brief: as §1
# [18] = biological target: Fuc(a1-3)[Gal(b1-4)]GlcNAc(b1-4)Gal(b1-4)[Fuc(a1-3)]GlcNAc(b1-4)Gal(b1-4)[Fuc(a1-3)]GlcNAc
# Method in brief: as §1
# [19] = biological target: Fuc(a1-3)[Gal(b1-4)]GlcNAc(b1-6)GalNAc
# Method in brief: as §1
# [20] = biological target: Fuc(a1-3)[Gal(b1-4)]GlcNAc(b1-6)[Gal(b1-3)GlcNAc(b1-3)]Gal(b1-4)Glc
# Method in brief: as §1
# [21] = biological target: Fuc(a1-3)[Gal(b1-4)]GlcNAc6S
# Method in brief: as §1
# [22] = biological target: Fuc(a1-3)[Gal3S(b1-4)]Glc
# Method in brief: as §1
# [23] = biological target: Fuc(a1-3)[Gal3S(b1-4)]Glc6S
# Method in brief: as §1
# [24] = biological target: Fuc(a1-3)[Gal3S(b1-4)]GlcNAc
# Method in brief: as §1
# [25] = biological target: Fuc(a1-3)[Gal3S(b1-4)]GlcNAc6S
# Method in brief: as §1
# [26] = biological target: Fuc(a1-3)[GalNAc(b1-4)]Gal(b1-4)GlcNAc
# Method in brief: as §1
# [27] = biological target: Fuc(a1-3)[GalNAc(b1-4)]GlcNAc
# Method in brief: as §1
# [28] = biological target: Fuc(a1-3)[GalNAc(b1-4)]GlcNAc6S
# Method in brief: as §1
# [29] = biological target: Fuc(a1-4)GlcNAc
# Method in brief: as §1
# [30] = biological target: Fuc(b1-3)GlcNAc
# Method in brief: as §1
# [31] = biological target: Gal(a1-2)Gal
# Method in brief: as §1
# [32] = biological target: Gal(a1-3)Gal
# Method in brief: as §1
# [33] = biological target: Gal(a1-3)Gal(b1-3)Glc
# Method in brief: as §1
# [34] = biological target: Gal(a1-3)Gal(b1-3)GlcNAc
# Method in brief: as §1
# [35] = biological target: Gal(a1-3)Gal(b1-3)GlcNAc(b1-2)Man
# Method in brief: as §1
# [36] = biological target: Gal(a1-3)Gal(b1-3)GlcNAc(b1-2)Man(a1-3)[Gal(a1-3)Gal(b1-3)GlcNAc(b1-2)Man(a1-6)]Man(b1-4)GlcNAc(b1-4)GlcNAc
# Method in brief: as §1
# [37] = biological target: Gal(a1-3)Gal(b1-3)GlcNAc(b1-3)GalNAc
# Method in brief: as §1
# [38] = biological target: Gal(a1-3)Gal(b1-3)GlcNAc(b1-6)GalNAc
# Method in brief: as §1
# [39] = biological target: Gal(a1-3)Gal(b1-3)[Fuc(a1-4)]GlcNAc(b1-2)Man(a1-3)[Gal(a1-3)Gal(b1-3)[Fuc(a1-4)]GlcNAc(b1-2)Man(a1-6)]Man(b1-4)GlcNAc(b1-4)GlcNAc
# Method in brief: as §1
# [40] = biological target: Gal(a1-3)Gal(b1-4)Glc
# Method in brief: as §1
# [41] = biological target: Gal(a1-3)Gal(b1-4)GlcNAc
# Method in brief: as §1
# [42] = biological target: Gal(a1-3)Gal(b1-4)GlcNAc(b1-2)Man
# Method in brief: as §1
# [43] = biological target: Gal(a1-3)Gal(b1-4)GlcNAc(b1-2)Man(a1-3)[Gal(a1-3)Gal(b1-4)GlcNAc(b1-2)Man(a1-6)]Man(b1-4)GlcNAc(b1-4)GlcNAc
# Method in brief: as §1
# [44] = biological target: Gal(a1-3)Gal(b1-4)GlcNAc(b1-3)GalNAc
# Method in brief: as §1
# [45] = biological target: Gal(a1-3)Gal(b1-4)GlcNAc(b1-6)GalNAc
# Method in brief: as §1
binder,measurement,setting,value
B1,glycan array binding signal (z-score),[1],-0.325
same,glycan array binding signal (z-score),[2],-0.382
same,glycan array binding signal (z-score),[3],0.026
same,glycan array binding signal (z-score),[4],1.61
same,glycan array binding signal (z-score),[5],0.139
same,glycan array binding signal (z-score),[6],-0.15
same,glycan array binding signal (z-score),[7],0.747
same,glycan array binding signal (z-score),[8],0.071
same,glycan array binding signal (z-score),[9],0.51
same,glycan array binding signal (z-score),[10],-0.252
same,glycan array binding signal (z-score),[11],0.31
same,glycan array binding signal (z-score),[12],0.301
same,glycan array binding signal (z-score),[13],0.767
same,glycan array binding signal (z-score),[14],1.54
same,glycan array binding signal (z-score),[15],8.86
same,glycan array binding signal (z-score),[16],0.157
same,glycan array binding signal (z-score),[17],1.35
same,glycan array binding signal (z-score),[18],1.86
same,glycan array binding signal (z-score),[19],0.08
same,glycan array binding signal (z-score),[20],-0.012
same,glycan array binding signal (z-score),[21],0.157
same,glycan array binding signal (z-score),[22],-0.195
same,glycan array binding signal (z-score),[23],0.757
same,glycan array binding signal (z-score),[24],-0.14
same,glycan array binding signal (z-score),[25],-0.275
same,glycan array binding signal (z-score),[26],-0.071
same,glycan array binding signal (z-score),[27],-0.042
same,glycan array binding signal (z-score),[28],-0.039
same,glycan array binding signal (z-score),[29],-0.243
same,glycan array binding signal (z-score),[30],0.523
same,glycan array binding signal (z-score),[31],-0.26
same,glycan array binding signal (z-score),[32],-0.172
same,glycan array binding signal (z-score),[33],-0.091
same,glycan array binding signal (z-score),[34],-0.306
same,glycan array binding signal (z-score),[35],-0.377
same,glycan array binding signal (z-score),[36],1.7
same,glycan array binding signal (z-score),[37],-0.223
same,glycan array binding signal (z-score),[38],-0.19
same,glycan array binding signal (z-score),[39],0.316
same,glycan array binding signal (z-score),[40],-0.077
same,glycan array binding signal (z-score),[41],-0.23
same,glycan array binding signal (z-score),[42],-0.168
same,glycan array binding signal (z-score),[43],0.071
same,glycan array binding signal (z-score),[44],-0.205
same,glycan array binding signal (z-score),[45],-0.284
